Data reported in patent US11999716B2, “WDR5 inhibitors and modulators” (priority 2018, dated 2024).

Target: WDR5 (Homo sapiens, UniProt P61964)
Test: biochemical
Format: binding
Details: WDR5-His tag (Δ23, residues 24-334) 2 nM; 10mer-Thr-FAM probe 150 nM; Tb-anti-HIS 1 nM; 60 min, room temperature; read-out: Ki for Inhibition of WDR5 by TR-FRET assay

For Cc1ccnc(CN2CCc3c(cc(Cn4ccn(C5CC5)c4=N)cc3-c3cn(C)nc3C(F)(F)F)C2=O)c1 [Example 51, 7-((3-Cyclopropyl-2-imino-2,3-dihydro-1H-imidazol-1-yl)methyl)-5-(1-methyl-3-(trifluoromethyl)-1H-pyrazol-4-yl)-2-((4-methylpyridin-2-yl)methyl)-3,4-dihydroisoquinolin-1(2H)-one], the Ki was less than 0.05 nM.

For COc1ccnc(CN2CCc3c(cc(Cn4ccn(C)c4=N)cc3-c3ccc(F)cc3C)C2=O)c1 [Example 52, 5-(4-fluoro-2-methylphenyl)-7-((2-imino-3-methyl-2,3-dihydro-1H-imidazol-1-yl)methyl)-2-((4-methoxypyridin-2-yl)methyl)-3,4-dihydroisoquinolin-1(2H)-one], the Ki was less than 0.05 nM.

Cc1ccnc(CN2CCc3c(cc(Cn4ccn(C)c4=N)cc3-c3cn(C)nc3C(F)(F)F)C2=O)c1 [Example 53, 7-((2-Imino-3-methyl-2,3-dihydro-1H-imidazol-1-yl)methyl)-5-(1-methyl-3-(trifluoromethyl)-1H-pyrazol-4-yl)-2-((4-methylpyridin-2-yl)methyl)-3,4-dihydroisoquinolin-1(2H)-one] was tested, and the Ki was less than 0.05 nM.

In the case of COc1ccnc(CN2CCc3c(cc(Cn4ccn(C)c4=N)cc3C3CC3)C2=O)c1 [Example 54, 5-Cyclopropyl-7-((2-imino-3-methyl-2,3-dihydro-1H-imidazol-1-yl)methyl)-2-((4-methoxypyridin-2-yl)methyl)-3,4-dihydroisoquinolin-1(2H)-one], the Ki is reported as 0.57 nM.

In the case of CCn1cc(-c2cc(CN3CCN(C)C3=N)cc3c2CCN(Cc2cc(OC)ccn2)C3=O)c(C(F)(F)F)n1 [Example 55, 5-(1-Ethyl-3-(trifluoromethyl)-1H-pyrazol-4-yl)-7-((2-imino-3-methylimidazolidin-1-yl)methyl)-2-((4-methoxypyridin-2-yl)methyl)-3,4-dihydroisoquinolin-1(2H)-one], the Ki is reported as less than 0.05 nM.

With CCn1cc(-c2cc(Cn3cc4n(c3=N)CCC4)cc3c2CCN(Cc2cc(OC)ccn2)C3=O)c(C(F)(F)F)n1 [Example 56, 5-(1-Ethyl-3-(trifluoromethyl)-1H-pyrazol-4-yl)-7-((3-imino-6,7-dihydro-3H-pyrrolo[1,2-c]imidazol-2(5H)-yl)methyl)-2-((4-methoxypyridin-2-yl)methyl)-3,4-dihydroisoquinolin-1(2H)-one] the Ki was 0.05 nM.

CCn1cc(-c2cc(Cn3ccn(C)c3=N)cc3c2CCN(Cc2cc(OC)ccn2)C3=O)c(C(F)(F)F)n1 [Example 57, 5-(1-Ethyl-3-(trifluoromethyl)-1H-pyrazol-4-yl)-7-((2-imino-3-methyl-2,3-dihydro-1H-imidazol-1-yl)methyl)-2-((4-methoxypyridin-2-yl)methyl)-3,4-dihydroisoquinolin-1(2H)-one] gave a Ki of less than 0.05 nM.

CCn1cc(-c2cc(Cn3ccn(C4CC4)c3=N)cc3c2CCN(Cc2cc(OC)ccn2)C3=O)c(C(F)(F)F)n1 [Example 58, 7-((3-Cyclopropyl-2-imino-2,3-dihydro-1H-imidazol-1-yl)methyl)-5-(1-ethyl-3-(trifluoromethyl)-1H-pyrazol-4-yl)-2-((4-methoxypyridin-2-yl)methyl)-3,4-dihydroisoquinolin-1(2H)-one] was tested, and the Ki was less than 0.05 nM.

In the case of COc1cc(CN2CCc3c(cc(Cn4ccn(C)c4=N)cc3-c3ncc(F)cc3C)C2=O)cc(OC)c1 [Example 59, 2-(3,5-Dimethoxybenzyl)-5-(5-fluoro-3-methylpyridin-2-yl)-7-((2-imino-3-methyl-2,3-dihydro-1H-imidazol-1-yl)methyl)-3,4-dihydroisoquinolin-1(2H)-one], the Ki is reported as 0.14 nM.

In the case of COc1ccnc(CN2CCc3c(cc(Cn4ccn(C)c4=N)cc3-c3cccnc3C)C2=O)c1 [Example 60, 7-((2-Imino-3-methyl-2,3-dihydro-1H-imidazol-1-yl)methyl)-2-((4-methoxypyridin-2-yl)methyl)-5-(2-methylpyridin-3-yl)-3,4-dihydroisoquinolin-1(2H)-one], the Ki is reported as 0.03 nM.

COc1ccnc(CN2CCc3c(cc(Cn4ccn(C(F)F)c4=N)cc3-c3cn(C)nc3C(F)(F)F)C2=O)c1 [Example 61, 7-((3-(Difluoromethyl)-2-imino-2,3-dihydro-1H-imidazol-1-yl)methyl)-2-((4-methoxypyridin-2-yl)methyl)-5-(1-methyl-3-(trifluoromethyl)-1H-pyrazol-4-yl)-3,4-dihydroisoquinolin-1(2H)-one] gave a Ki of less than 0.05 nM.

COc1ccnc(CN2CCc3c(cc(Cn4cc5n(c4=N)CCC5)cc3-c3cn(C)nc3C(F)(F)F)C2=O)c1 [Example 62, 7-((3-Imino-6,7-dihydro-3H-pyrrolo[1,2-c]imidazol-2(51/)-yl)methyl)-2-((4-methoxypyridin-2-yl)methyl)-5-(1-methyl-3-(trifluoromethyl)-1H-pyrazol-4-yl)-3,4-dihydroisoquinolin-1(2H)-one] was tested, and the Ki was less than 0.05 nM.

Work on CCn1cc(-c2cc(Cn3ccn(C)c3=N)cc3c2CCN(Cc2cc(OC)ccn2)C3=O)c(C)n1 [Example 63, 5-(1-Ethyl-3-methyl-1H-pyrazol-4-yl)-7-((2-imino-3-methyl-2,3-dihydro-1H-imidazol-1-yl)methyl)-2-((4-methoxypyridin-2-yl)methyl)-3,4-dihydroisoquinolin-1(2H)-one] yielded a Ki of less than 0.05 nM.

Work on COc1cc(CN2CCc3c(cc(Cn4ccn(C)c4=N)cc3-c3c(C)nn(C)c3C)C2=O)cc(OC)c1 [Example 64, 2-(3,5-Dimethoxybenzyl)-7-((2-imino-3-methyl-2,3-dihydro-1H-imidazol-1-yl)methyl)-5-(1,3,5-trimethyl-1H-pyrazol-4-yl)-3,4-dihydroisoquinolin-1(2H)-one] yielded a Ki of 2 nM.

COc1ccnc(CN2CCc3c(cc(Cn4ccnc4N)cc3-c3cn(C)nc3C(F)(F)F)C2=O)c1 [Example 65, 7-((2-Amino-1H-imidazol-1-yl)methyl)-2-((4-methoxypyridin-2-yl)methyl)-5-(1-methyl-3-(trifluoromethyl)-1H-pyrazol-4-yl)-3,4-dihydroisoquinolin-1(2H)-one] gave a Ki of less than 0.05 nM.

CCn1cc(-c2cc(Cn3ccn(C)c3=N)cc3c2CCN([C@@H](C)c2cc(OC)ccn2)C3=O)c(C(F)(F)F)n1 [Example 66, (S)-5-(1-Ethyl-3-(trifluoromethyl)-1H-pyrazol-4-yl)-7-((2-imino-3-methyl-2,3-dihydro-1H-imidazol-1-yl)methyl)-2-(1-(4-methoxypyridin-2-yl)ethyl)-3,4-dihydroisoquinolin-1(2H)-one] showed a Ki of less than 0.05 nM.

Work on CCn1cc(-c2cc(Cn3ccn(C(F)F)c3=N)cc3c2CCN([C@@H](C)c2cc(OC)ccn2)C3=O)c(C(F)(F)F)n1 [Example 67, (S)-7-((3-(Difluoromethyl)-2-imino-2,3-dihydro-1H-imidazol-1-yl)methyl)-5-(1-ethyl-3-(trifluoromethyl)-1H-pyrazol-4-yl)-2-(1-(4-methoxypyridin-2-yl)ethyl)-3,4-dihydroisoquinolin-1(2H)-one] yielded a Ki of less than 0.05 nM.

Work on COc1cc(CN2CCc3c(cc(Cn4ccn(C)c4=N)cc3-c3ccc(C)nc3C)C2=O)cc(OC)c1 [Example 68, 2-(3,5-Dimethoxybenzyl)-5-(2,6-dimethylpyridin-3-yl)-7-((2-imino-3-methyl-2,3-dihydro-1H-imidazol-1-yl)methyl)-3,4-dihydroisoquinolin-1(2H)-one] yielded a Ki of 0.056 nM.

Work on COc1cc(CN2CCc3c(OC4CCC4)cc(Cn4ccn(C)c4=N)cc3C2=O)cc(OC)c1 [Example 69, 5-Cyclobutoxy-2-(3,5-dimethoxybenzyl)-7-((2-imino-3-methyl-2,3-dihydro-1H-imidazol-1-yl)methyl)-3,4-dihydroisoquinolin-1(2H)-one] yielded a Ki of 0.55 nM.

In the case of COc1cc(CN2CCc3c(cc(Cn4ccn(C)c4=N)cc3-c3cn(C)nc3C)C2=O)cc(OC)c1 [Example 70, 2-(3,5-Dimethoxybenzyl)-5-(1,3-dimethyl-1H-pyrazol-4-yl)-7-((2-imino-3-methyl-2,3-dihydro-1H-imidazol-1-yl)methyl)-3,4-dihydroisoquinolin-1(2H)-one], the Ki is reported as less than 0.05 nM.

For COc1ccnc([C@H](C)N2CCc3c(cc(Cn4ccn(C)c4=N)cc3-c3cn(C)nc3C(F)(F)F)C2=O)c1 [Example 71, (S)-7-((2-Imino-3-methyl-2,3-dihydro-1H-imidazol-1-yl)methyl)-2-(1-(4-methoxypyridin-2-yl)ethyl)-5-(1-methyl-3-(trifluoromethyl)-1H-pyrazol-4-yl)-3,4-dihydroisoquinolin-1(2H)-one], the Ki was less than 0.05 nM.

COc1ccnc([C@H](C)N2CCc3c(cc(Cn4ccn(C(F)F)c4=N)cc3-c3cn(C)nc3C(F)(F)F)C2=O)c1 [Example 72, (S)-7-((3-(Difluoromethyl)-2-imino-2,3-dihydro-1H-imidazol-1-yl)methyl)-2-(1-(4-methoxypyridin-2-yl)ethyl)-5-(1-methyl-3-(trifluoromethyl)-1H-pyrazol-4-yl)-3,4-dihydroisoquinolin-1(2H)-one] showed a Ki of less than 0.05 nM.

COc1cc(CN2CCc3c(OCC(F)(F)F)cc(Cn4ccn(C)c4=N)cc3C2=O)cc(OC)c1 [Example 73, 2-(3,5-Dimethoxybenzyl)-7-((2-imino-3-methyl-2,3-dihydro-1H-imidazol-1-yl)methyl)-5-(2,2,2-trifluoroethoxy)-3,4-dihydroisoquinolin-1(2H)-one] gave a Ki of 0.37 nM.

In the case of CCn1cc(-c2cc(Cn3ccn(C)c3=N)cc3c2CCN(Cc2cc(C)nn2C)C3=O)c(C(F)(F)F)n1 [Example 74], the Ki is reported as less than 0.05 nM.

With COc1cc(CN2CCc3c(OCC4CC4)cc(Cn4ccn(C)c4=N)cc3C2=O)cc(OC)c1 [Example 75, 5-(Cyclopropylmethoxy)-2-(3,5-dimethoxybenzyl)-7-((2-imino-3-methyl-2,3-dihydro-1H-imidazol-1-yl)methyl)-3,4-dihydroisoquinolin-1(2H)-one] the Ki was 0.63 nM.

COc1cc(CN2CCc3c(cc(Cn4ccn(C)c4=N)cc3-c3c(C)noc3C)C2=O)cc(OC)c1 [Example 76, 2-(3,5-Dimethoxybenzyl)-5-(3,5-dimethylisoxazol-4-yl)-7-((2-imino-3-methyl-2,3-dihydro-1H-imidazol-1-yl)methyl)-3,4-dihydroisoquinolin-1(2H)-one] showed a Ki of 0.16 nM.
